Experimental data published in article PMC4336329 (PLoS ONE, 2015).
Among all 310,000 compounds or so, about 2,200 (0.71%) showed an effect of 50% or more. Effects have a minus sign here. The list shows a part of the results.

molecular target: human ether-à-go-go-related gene (hERG) potassium channel (human, UniProt Q12809); assay: primary screen, population patch clamp on CHO cells stably expressing hERG
Sequence (Q12809 whole entry, looked up): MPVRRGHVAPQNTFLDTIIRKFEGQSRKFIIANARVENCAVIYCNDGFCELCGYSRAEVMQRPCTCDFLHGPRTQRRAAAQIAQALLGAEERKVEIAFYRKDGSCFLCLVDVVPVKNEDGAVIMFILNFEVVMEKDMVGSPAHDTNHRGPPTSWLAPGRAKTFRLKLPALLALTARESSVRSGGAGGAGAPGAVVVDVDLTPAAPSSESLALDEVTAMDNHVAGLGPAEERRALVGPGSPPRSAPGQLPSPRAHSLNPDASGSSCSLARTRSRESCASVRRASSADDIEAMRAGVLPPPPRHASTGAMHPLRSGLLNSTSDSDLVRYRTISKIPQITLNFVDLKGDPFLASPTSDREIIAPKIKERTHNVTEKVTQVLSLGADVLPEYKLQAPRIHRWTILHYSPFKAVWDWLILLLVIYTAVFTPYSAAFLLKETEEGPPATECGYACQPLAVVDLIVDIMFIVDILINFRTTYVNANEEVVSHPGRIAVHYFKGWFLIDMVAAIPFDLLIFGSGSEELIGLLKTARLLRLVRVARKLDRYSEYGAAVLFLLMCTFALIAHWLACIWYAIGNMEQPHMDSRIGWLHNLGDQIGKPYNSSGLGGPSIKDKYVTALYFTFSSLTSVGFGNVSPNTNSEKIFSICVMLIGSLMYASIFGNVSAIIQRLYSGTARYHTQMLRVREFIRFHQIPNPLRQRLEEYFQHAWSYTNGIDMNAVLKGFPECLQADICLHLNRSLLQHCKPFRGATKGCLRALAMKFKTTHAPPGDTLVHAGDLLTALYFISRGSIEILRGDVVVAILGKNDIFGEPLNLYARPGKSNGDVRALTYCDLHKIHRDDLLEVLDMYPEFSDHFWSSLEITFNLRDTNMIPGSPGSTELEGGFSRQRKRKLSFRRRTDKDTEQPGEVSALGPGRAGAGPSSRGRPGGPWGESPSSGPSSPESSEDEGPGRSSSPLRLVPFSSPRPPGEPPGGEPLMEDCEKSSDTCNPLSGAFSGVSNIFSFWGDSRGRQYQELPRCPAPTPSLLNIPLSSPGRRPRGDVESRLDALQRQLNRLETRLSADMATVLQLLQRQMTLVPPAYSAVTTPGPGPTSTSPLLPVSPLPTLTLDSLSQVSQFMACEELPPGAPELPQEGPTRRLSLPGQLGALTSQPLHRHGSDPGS

Row | Compound | hERG current change (%, negative = inhibition) at 1uM [%]
1 | CC(=O)c1ccc(NC(=O)C2CC(=O)N(Cc3ccccc3)C2)cc1 (centres unmarked) | 14.3
2 | CSCCC(NC(=O)c1ccccc1Cl)C(=O)NNC(=O)c1csc(N2CCOCC2)n1 (centres unmarked) | 1.23
3 | Cc1ccc(C(=O)Nc2ccccc2Oc2ccccc2)o1 | 9.29
4 | CCN(CC(=O)NC(C)(C)C)C(=O)CCl | 5.17
5 | NC(=O)CCC(=O)N1CCCC(C(=O)c2ccc3c4c(cccc24)CC3)C1 (centres unmarked) | 8.27
6 | O=C(CNS(=O)(=O)c1cccs1)N1CCN(c2ccccc2F)CC1 | 9.22
7 | CCCc1nc(N)sc1C(=O)OCC | 6.02
8 | CCCc1cc(C(=O)N/N=C/c2ccc(CC)s2)c2ccccc2n1 | -2.38
9 | CCOC(=O)/C(C#N)=C/c1cc(C)n(-c2ccc(C)cc2)c1C | 13.5
10 | CC(C)(C)c1ccc(C(=O)NN=C2CCCC2)cc1 | 12.4
11 | C#CCOC(=O)CN1C(=O)c2cccc3cccc(c23)C1=O | 6.29
12 | CCC(C)(C)n1nnnc1C(CC(C)C)N1CCC(C(N)=O)CC1 (centres unmarked) | 7.37
13 | CCOc1ccc(-n2c(SCC(=O)Nc3cc(OC)c([N+](=O)[O-])cc3C)nc3ccccc32)cc1 | 9.24
14 | Cc1nn2c(COc3ccc(NC(=O)c4ccccc4)cc3)nnc2c2ccccc12 | 6.55
15 | COc1cc(-c2nc3ccc4ccccc4c3c3c2CCC3)cc(OC)c1O | 5.77
16 | O=C(NC(=C(Cl)Cl)P(=O)(c1ccccc1)c1ccccc1)c1ccccc1 | 12.4
17 | COc1ccc(Cc2nnc(SCC(=O)NC3CCCCC3)n2C)cc1 | 13.3
18 | COc1cccc(N2C(=O)C3CCCN3C2=S)c1 (centres unmarked) | 14
19 | O=c1[nH]c(=O)n([C@H]2C[C@H](O)[C@@H](CO)O2)cc1I | 12.6
20 | CC(=O)Nc1ccc(NC(=O)C(C)OC(=O)/C=C/c2cn(-c3ccccc3)nc2-c2cccnc2)cc1 (centres unmarked) | 11.2
21 | Cc1ccc(CNC(=O)CCCCCNc2nc(=S)[nH]c3ccccc23)cc1 | 1.76
22 | CCC(C)c1ccccc1OCC(=O)NN1C(=O)c2ccccc2C1=O (centres unmarked) | 8.15
23 | CCOP(=O)(OCC)C(Nc1ccccn1)c1ccc(F)cc1 (centres unmarked) | 13.7

Row | Compound | hERG current change (%, negative = inhibition) at 1uM [%]
24 | O=C(c1ccc(F)cc1)N1CCN(Cc2ccccc2)CC1 | 10.5
25 | Cc1nc2cc(NC(=O)N3c4ccccc4CC3C)ccc2o1 (centres unmarked) | 5.48
26 | O=C(NCC1CCCO1)c1ccc2c(c1)N(Cc1ccc(F)cc1)CCS2 (centres unmarked) | 15.3
27 | CCOC(=O)CNC(=O)N1CCCC(Cc2ccccc2)(C(=O)OCC)C1 (centres unmarked) | 11.6
28 | O=C(CCc1nc2ccccc2[nH]c1=O)N/N=C/c1ccccc1 | 9.37
29 | O=C(CCNC(=O)c1ccccc1Cl)OCC(=O)c1ccccc1 | 14.9
30 | CSCC[C@H](NC(=O)C(C)Oc1ccc(Cl)cc1)c1nc2ccccc2[nH]1 (some centres unmarked) | 2.43
31 | CCCn1nc(NC(=O)c2ccccn2)c2cc3cc(C)ccc3nc21 | -3.45
32 | O=C(Cc1cccs1)Nc1nc(-c2cccnc2)cs1 | 5.36
33 | CCC(C)NC(=O)c1ccccc1NC(=O)Nc1ccccc1 (centres unmarked) | 12.1
34 | CCCCc1ccc(N2C(=NC(=O)C3CCCO3)SC3CS(=O)(=O)CC32)cc1 (centres unmarked) | -14.1
35 | COCc1c(C(=O)N2CCc3ccccc32)oc2ccccc12 | 14.3
36 | Cc1ccc(N2C(=O)CC(Nc3ccccc3)C2=O)cc1 (centres unmarked) | 14.7
37 | O=C(O)Cc1ccc2c(c1)N(S(=O)(=O)c1cccs1)CC(C(=O)O)O2 (centres unmarked) | 16.9
38 | COc1ccc(CNc2ccc3cn[nH]c3c2)c(OC)c1OC | -1.25
39 | COC(=O)CSc1nc(N)c(C#N)c(-c2ccc(O)cc2)c1C#N | 5.67
40 | COc1cc(/C=C(\C#N)C(=O)NCC2CCCO2)cc(OC)c1OC (centres unmarked) | 11.6
41 | O=C(CO)N/N=C/c1ccc(Cl)cc1 | 18.6
42 | CC(C)(C)C(=O)NC(=S)Nc1ccccc1N1CCCC1 | 4.94
43 | C[C@]12C=CC(=O)C=C1C=C[C@@H]1C2CC[C@]2(C)C(=O)CCC12 (some centres unmarked) | -7.2
44 | Fc1ccc(CNC(=S)NC2CCCC2)cc1 | 16.8
45 | CCCc1nnc(NC(=O)CCC(=O)N2CCN(Cc3ccc(F)cc3)CC2)s1 | 9.42
46 | c1ccc(N=P(N2CCOCC2)(N2CCOCC2)N2CCOCC2)cc1 | 2.46

Row | Compound | hERG current change (%, negative = inhibition) at 1uM [%]
47 | Cc1ccc(NC(=O)C2CCCN(S(=O)(=O)c3cccc4cccnc34)C2)cc1 (centres unmarked) | 10.1
48 | OC1(C(F)(F)F)CC(c2ccc3ccccc3c2)=NO1 (centres unmarked) | 14.6
49 | CC1CCN(C(=O)COC(=O)C23CC4CC(CC(O)(C4)C2)C3)CC1 | 18.8
50 | Cc1ccc(C)n1-c1ccc(C(=O)NN)s1 | 1.46
51 | COC(=O)CCCCC1SCC2NC(=O)NC21 (centres unmarked) | 11.5
52 | CC(C)CSc1nsc(N)n1 | 19.8
53 | CCOC(=O)C1=C(N)n2c(s/c(=C/c3ccccc3)c2=O)=C(C(=O)OCC)C1c1ccccc1 (centres unmarked) | 13.1
54 | COc1ccc(OCc2cc(-c3ccc(Cl)cc3)no2)cc1 | 11.6
55 | CC(=O)NC(CC(=O)OCC(=O)NCCc1ccccc1)c1ccccc1 (centres unmarked) | 19.7
56 | Cc1ccc(N(C)C(=O)c2ccc(CNc3c(N4CCC(C)CC4)c(=O)c3=O)cc2)cc1 | 10.2
57 | O=C(O)c1ccc(S(=O)(=O)c2ccc3c(c2)C(=O)N(CC2CCCO2)C3=O)cc1 (centres unmarked) | 18.8
58 | CN(Cc1ccccc1F)c1ccc(S(=O)(=O)N2CCCC2)cn1 | -1.11
59 | Cc1ccsc1C1NC(=O)c2c(sc3c2CCCC3)N1 (centres unmarked) | 0.906
60 | C=CCNCC(=O)N1N=C(c2ccc3ccccc3c2)CC1c1ccc(OC)cc1.O=C(O)C(=O)O (centres unmarked) | 10.2
61 | CN(C)c1cc2c(cc1NC(=O)c1ccccc1Cl)n(C)c(=O)n2C | 11.2
62 | O=C(N/N=C/c1ccccc1C(=O)O)c1cc(-c2ccc3c4c(cccc24)CC3)n[nH]1 | 12.9
63 | O=C(O)c1ccccc1C(=O)NCc1ccc(F)cc1 | 8.7
64 | COc1cccc(CNC(=O)C2CCCN(c3cnccn3)C2)c1 (centres unmarked) | 0.0106
65 | CCOC(=O)Cn1nc(C)c(NC(=O)c2ccc([N+](=O)[O-])c(C)c2)c1C | 17.9
66 | NC(=O)c1ccsc1NC(=O)CN1C(=O)NC2(CCCCC2)C1=O | 15.2
67 | CCC(CC)c1nnc(NC(=O)c2nc3nc(C)cc(C)n3n2)s1 | 6.33
68 | c1ccc2c(c1)nc1sccn12 | -2.42
69 | CCc1ccccc1NC(=O)N1C2CCCC1CC(NC(C)=O)C2 (centres unmarked) | 21

Row | Compound | hERG current change (%, negative = inhibition) at 1uM [%]
70 | O=C1c2ccccc2C(=O)c2cc(S(=O)(=O)Nc3ccccc3)ccc21 | 6.97
71 | COc1ccc2cc(CCNC(=O)CCc3ccccc3)c(=O)[nH]c2c1 | 18.7
72 | O=C(NCc1ccc(Cl)cc1)C1CCCN1C(=O)Nc1ccccc1 (centres unmarked) | -3.8
73 | Cc1ccc(C(=O)CNc2ccccc2)cc1 | 12.3
74 | O=C(c1ccc(=O)oc1)N1CCN(C(c2ccccc2)c2ccccc2)CC1 | 3.15
75 | CCC(C)NC(=O)COC(=O)c1cc([N+](=O)[O-])ccc1Sc1nc(C)cs1 (centres unmarked) | 8.13
76 | Cc1ccc(S(=O)(=O)N2CCC(NC(=O)c3cccc(C)c3)CC2)cc1 | 9.02
77 | c1ccc(-c2cn3c(n2)-c2ccccc2C3)cc1 | 6.93
78 | CN(CC(=O)Nc1cccc(F)c1)C(=O)CN1C(=O)NC2(CCCC2)C1=O | 4.92
79 | CC(C)(C)c1ccc(/C=N/NC(=O)Cc2c[nH]c3ccccc23)cc1 | 6.53
80 | CN(C)C(CNS(=O)(=O)c1ccc(Cl)cc1)c1cccnc1 (centres unmarked) | 15.7
81 | COc1ccccc1CC(=O)NC12CC3CC(CC(C3)C1)C2 | 15.9
82 | O=C1/C(=C\c2ccc(O)cc2)SC(=S)N1/N=C/c1ccc(O)cc1 | 8.88
83 | O=C(Cn1cnc2c(nnn2Cc2ccccc2F)c1=O)OCc1ccccc1 | -8.47
84 | CCCOc1ccc(/C=N/NC(=O)c2c(-c3ccccc3)noc2C)cc1OC | 2.63
85 | COC(=O)NNC(=O)c1ccc(C)cc1 | -17.7
86 | CCCCCCCCN1[C@@H](CC(=O)OCC)c2ccc(C(F)(F)F)cc2S1(=O)=O | 6.09
87 | O=S(=O)(c1ccc(Cl)cc1)n1cnc2ccccc21 | 12.4
88 | COc1cc2nc(N(C)CCCNC(=O)C3CCCO3)nc(N)c2cc1OC (centres unmarked) | -0.911
89 | Cc1ccc(S(=O)(=O)CC(=O)Nc2ccc(Cl)cn2)cc1 | 1.04
90 | COc1ccccc1NC(=O)CSc1ccc(-c2ccco2)nn1 | 4.52
91 | CSc1nc2ccc(NC(=O)c3c(-c4ccccc4)noc3C)cc2s1 | 15.3
92 | Cc1ccc(OCC(=O)N2CC(C)OC(C)C2)c([N+](=O)[O-])n1 (centres unmarked) | -5.22
